# From the supplement of paper PMC8728848
# The list shows a part of the results.
# Legend:
# Assay in all cases: glycan array binding signal (z-score within array); higher = stronger binding
# Conditions in all cases: glycan notation: IUPAC condensed, linker removed
# [1] = target: Neu5Ac(a2-3)GalNAc
# Summary of the method: (§1)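 Glycan array data came from 3228 arrays in the Consortium for Functional Glycomics database, and only arrays with an available protein sequence were kept. Glycan names were put into IUPAC-condensed notation, and columns mapping to the same glycan were averaged. The binding signal is a within-array Z-score, averaged across arrays of one protein sequence run at different concentrations or buffers and across linkers. A negative Z-score can be read as non-binding.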
# [2] = target: Neu5Ac(a2-3)GalNAc(b1-4)GlcNAc
# Summary of the method: as §1
# [3] = target: Neu5Ac(a2-3)[GalNAc(b1-4)]Gal(b1-4)Glc
# Summary of the method: as §1
# [4] = target: Neu5Ac(a2-3)[GalNAc(b1-4)]Gal(b1-4)GlcNAc
# Summary of the method: as §1
# [5] = target: Neu5Ac(a2-3)[GalNAc(b1-4)]Gal(b1-4)GlcNAc(b1-3)GalNAc
# Summary of the method: as §1
# [6] = target: Neu5Ac(a2-3)[Neu5Ac(a2-6)]GalNAc
# Summary of the method: as §1
# [7] = target: Neu5Ac(a2-6)Gal
# Summary of the method: as §1
# [8] = target: Neu5Ac(a2-6)Gal(b1-3)GlcNAc(b1-3)[Gal(b1-4)GlcNAc(b1-6)]Gal(b1-4)Glc
# Summary of the method: as §1
# [9] = target: Neu5Ac(a2-6)Gal(b1-4)Glc
# Summary of the method: as §1
# [10] = target: Neu5Ac(a2-6)Gal(b1-4)GlcNAc
# Summary of the method: as §1
# [11] = target: Neu5Ac(a2-6)Gal(b1-4)GlcNAc(b1-2)Man
# Summary of the method: as §1
# [12] = target: Neu5Ac(a2-6)Gal(b1-4)GlcNAc(b1-2)Man(a1-3)Man(b1-4)GlcNAc(b1-4)GlcNAc
# Summary of the method: as §1
# [13] = target: Neu5Ac(a2-6)Gal(b1-4)GlcNAc(b1-2)Man(a1-3)[Gal(b1-4)GlcNAc(b1-2)Man(a1-6)]Man(b1-4)GlcNAc(b1-4)GlcNAc
# Summary of the method: as §1
# [14] = target: Neu5Ac(a2-6)Gal(b1-4)GlcNAc(b1-2)Man(a1-3)[GlcNAc(b1-2)Man(a1-6)]Man(b1-4)GlcNAc(b1-4)GlcNAc
# Summary of the method: as §1
# [15] = target: Neu5Ac(a2-6)Gal(b1-4)GlcNAc(b1-2)Man(a1-3)[GlcNAc(b1-4)][Neu5Ac(a2-6)Gal(b1-4)GlcNAc(b1-2)Man(a1-6)]Man(b1-4)GlcNAc(b1-4)GlcNAc
# Summary of the method: as §1
# [16] = target: Neu5Ac(a2-6)Gal(b1-4)GlcNAc(b1-2)Man(a1-3)[Man(a1-6)]Man(b1-4)GlcNAc(b1-4)GlcNAc
# Summary of the method: as §1
# [17] = target: Neu5Ac(a2-6)Gal(b1-4)GlcNAc(b1-2)Man(a1-3)[Neu5Ac(a2-3)Gal(b1-4)GlcNAc(b1-2)Man(a1-6)]Man(b1-4)GlcNAc(b1-4)GlcNAc
# Summary of the method: as §1
# [18] = target: Neu5Ac(a2-6)Gal(b1-4)GlcNAc(b1-2)Man(a1-3)[Neu5Ac(a2-6)Gal(b1-4)GlcNAc(b1-2)Man(a1-6)]Man(b1-4)GlcNAc(b1-4)GlcNAc
# Summary of the method: as §1
# [19] = target: Neu5Ac(a2-6)Gal(b1-4)GlcNAc(b1-2)Man(a1-3)[Neu5Ac(a2-6)Gal(b1-4)GlcNAc(b1-2)Man(a1-6)]Man(b1-4)GlcNAc(b1-4)[Fuc(a1-6)]GlcNAc
# Summary of the method: as §1
# [20] = target: Neu5Ac(a2-6)Gal(b1-4)GlcNAc(b1-2)Man(a1-6)Man(b1-4)GlcNAc(b1-4)GlcNAc
# Summary of the method: as §1
# [21] = target: Neu5Ac(a2-6)Gal(b1-4)GlcNAc(b1-2)Man(a1-6)[Gal(b1-4)GlcNAc(b1-2)Man(a1-3)]Man(b1-4)GlcNAc(b1-4)GlcNAc
# Summary of the method: as §1
# [22] = target: Neu5Ac(a2-6)Gal(b1-4)GlcNAc(b1-2)Man(a1-6)[GlcNAc(b1-2)Man(a1-3)]Man(b1-4)GlcNAc(b1-4)GlcNAc
# Summary of the method: as §1
# [23] = target: Neu5Ac(a2-6)Gal(b1-4)GlcNAc(b1-2)Man(a1-6)[Man(a1-3)]Man(b1-4)GlcNAc(b1-4)GlcNAc
# Summary of the method: as §1
# [24] = target: Neu5Ac(a2-6)Gal(b1-4)GlcNAc(b1-2)[Neu5Ac(a2-6)Gal(b1-4)GlcNAc(b1-4)]Man(a1-3)[GlcNAc(b1-4)][Neu5Ac(a2-6)Gal(b1-4)GlcNAc(b1-2)[Neu5Ac(a2-6)Gal(b1-4)GlcNAc(b1-6)]Man(a1-6)]Man(b1-4)GlcNAc(b1-4)GlcNAc
# Summary of the method: as §1
# [25] = target: Neu5Ac(a2-6)Gal(b1-4)GlcNAc(b1-2)[Neu5Ac(a2-6)Gal(b1-4)GlcNAc(b1-4)]Man(a1-3)[GlcNAc(b1-4)][Neu5Ac(a2-6)Gal(b1-4)GlcNAc(b1-4)Man(a1-6)]Man(b1-4)GlcNAc(b1-4)GlcNAc
# Summary of the method: as §1
# [26] = target: Neu5Ac(a2-6)Gal(b1-4)GlcNAc(b1-2)[Neu5Ac(a2-6)Gal(b1-4)GlcNAc(b1-6)]Man(a1-6)[Neu5Ac(a2-6)Gal(b1-4)GlcNAc(b1-2)Man(a1-3)][GlcNAc(b1-4)]Man(b1-4)GlcNAc(b1-4)GlcNAc
# Summary of the method: as §1
# [27] = target: Neu5Ac(a2-6)Gal(b1-4)GlcNAc(b1-3)Gal(b1-3)GlcNAc
# Summary of the method: as §1
# [28] = target: Neu5Ac(a2-6)Gal(b1-4)GlcNAc(b1-3)Gal(b1-4)GlcNAc
# Summary of the method: as §1
# [29] = target: Neu5Ac(a2-6)Gal(b1-4)GlcNAc(b1-3)Gal(b1-4)GlcNAc(b1-2)Man(a1-3)[Neu5Ac(a2-6)Gal(b1-4)GlcNAc(b1-3)Gal(b1-4)GlcNAc(b1-2)Man(a1-6)]GalNAc
# Summary of the method: as §1
# [30] = target: Neu5Ac(a2-6)Gal(b1-4)GlcNAc(b1-3)Gal(b1-4)GlcNAc(b1-3)Gal(b1-4)GlcNAc
# Summary of the method: as §1
# [31] = target: Neu5Ac(a2-6)Gal(b1-4)GlcNAc(b1-3)Gal(b1-4)GlcNAc(b1-3)Gal(b1-4)GlcNAc(b1-2)Man(a1-3)[Neu5Ac(a2-6)Gal(b1-4)GlcNAc(b1-3)Gal(b1-4)GlcNAc(b1-3)Gal(b1-4)GlcNAc(b1-2)Man(a1-6)]GalNAc
# Summary of the method: as §1
# [32] = target: Neu5Ac(a2-6)Gal(b1-4)GlcNAc(b1-3)Gal(b1-4)GlcNAc(b1-3)GalNAc
# Summary of the method: as §1
# [33] = target: Neu5Ac(a2-6)Gal(b1-4)GlcNAc(b1-3)Gal(b1-4)GlcNAc(b1-3)[Neu5Ac(a2-6)Gal(b1-4)GlcNAc(b1-3)Gal(b1-4)GlcNAc(b1-6)]GalNAc
# Summary of the method: as §1
# [34] = target: Neu5Ac(a2-6)Gal(b1-4)GlcNAc(b1-3)Gal(b1-4)GlcNAc(b1-6)[Gal(b1-3)]GalNAc
# Summary of the method: as §1
# [35] = target: Neu5Ac(a2-6)Gal(b1-4)GlcNAc(b1-3)Gal(b1-4)[Fuc(a1-3)]GlcNAc(b1-3)Gal(b1-4)[Fuc(a1-3)]GlcNAc
# Summary of the method: as §1
# [36] = target: Neu5Ac(a2-6)Gal(b1-4)GlcNAc(b1-3)GalNAc
# Summary of the method: as §1
# [37] = target: Neu5Ac(a2-6)Gal(b1-4)GlcNAc(b1-3)[Neu5Ac(a2-6)Gal(b1-4)GlcNAc(b1-6)]GalNAc
# Summary of the method: as §1
# [38] = target: Neu5Ac(a2-6)Gal(b1-4)GlcNAc(b1-6)GalNAc
# Summary of the method: as §1
binder,measurement,setting,value
Mg1lysM (Mycosphaerella graminicola) (protein) QRNPITITPQFDCGATNSQQYVARSGDTLTKIAQEIYHDVVGVCDIARANNLADPNRIDAGTPYTIPINCQTYDRNSCL,glycan array binding signal (z-score),[1],-0.074
same,glycan array binding signal (z-score),[2],-0.088
same,glycan array binding signal (z-score),[3],-0.075
same,glycan array binding signal (z-score),[4],-0.083
same,glycan array binding signal (z-score),[5],-0.068
same,glycan array binding signal (z-score),[6],-0.086
same,glycan array binding signal (z-score),[7],-0.073
same,glycan array binding signal (z-score),[8],-0.091
same,glycan array binding signal (z-score),[9],-0.085
same,glycan array binding signal (z-score),[10],-0.072
same,glycan array binding signal (z-score),[11],-0.057
same,glycan array binding signal (z-score),[12],-0.074
same,glycan array binding signal (z-score),[13],-0.067
same,glycan array binding signal (z-score),[14],-0.054
same,glycan array binding signal (z-score),[15],-0.082
same,glycan array binding signal (z-score),[16],-0.09
same,glycan array binding signal (z-score),[17],-0.055
same,glycan array binding signal (z-score),[18],-0.064
same,glycan array binding signal (z-score),[19],-0.064
same,glycan array binding signal (z-score),[20],-0.059
same,glycan array binding signal (z-score),[21],-0.072
same,glycan array binding signal (z-score),[22],-0.028
same,glycan array binding signal (z-score),[23],-0.034
same,glycan array binding signal (z-score),[24],-0.051
same,glycan array binding signal (z-score),[25],-0.081
same,glycan array binding signal (z-score),[26],-0.045
same,glycan array binding signal (z-score),[27],-0.061
same,glycan array binding signal (z-score),[28],-0.073
same,glycan array binding signal (z-score),[29],-0.083
same,glycan array binding signal (z-score),[30],-0.072
same,glycan array binding signal (z-score),[31],-0.056
same,glycan array binding signal (z-score),[32],-0.091
same,glycan array binding signal (z-score),[33],-0.079
same,glycan array binding signal (z-score),[34],-0.066
same,glycan array binding signal (z-score),[35],-0.071
same,glycan array binding signal (z-score),[36],-0.076
same,glycan array binding signal (z-score),[37],-0.041
same,glycan array binding signal (z-score),[38],-0.082
